Reference: US6344564B1, “Fungicidal 2-imidazolin-5-ones and 2-imidazoline-5-thiones” (priority 1992, dated 2002)

Each molecule was assayed on Plasmopara viticola (assay: In vivo test on Plasmopara viticola (grape downy mildew)). Details: in Vitis vinifera, 168 h, dose of 1 g/l, vine cuttings (Vitis vinifera, Chardonnay) sprayed 24 hours before infecting, reading 7 days after infecting, read-out: protection.
Procedure: An aqueous suspension of the active material to be rested is prepared, by fine milling, having the following composition:
Tween 80 surface-active agent (oleate of polyoxyethylenated derivative of sorbitan) diluted to 10% in water. 0.3 ml
volume made up to 60 ml with water.
This aqueous suspension is then diluted with water to produce the desired concentration of active material.
Vine cuttings (Vitis vinifera), Chardonnay variety, are grown in pots. When these plants are 2 moths old (8-10-leaf stage, height of 10 to 15 cm), they are treated by spraying with the above aqueous suspension.
After drying for 24 hours, each plant is infected, by spraying, with an aqueous suspension of spores of Plasmopara viticola obtained from a 4-5 day culture, and then suspended at a concentration of 100,000 units per cm^3.
The infected plants are then incubated for two days at approximately 18° C. in an atmosphere saturated with moisture and then for 5 days at approximately 20-22° C. under 90-100% relative humidity.
Reading is carried out 7 days after infecting, by comparison with the control plants.

Compound | pest or weed control at 1000 µg/mL [%]
CSC1=NC(C)(c2ccc(F)cc2)C(=O)N1Nc1ccccc1 (centres unmarked) [Compound 68, 4-Methyl-2-methylthio-4-(4-fluorophenyl)-1-phenylamino-2-imidazolin-5-one] | ≥ 75
CCC1(c2ccccc2)N=C(SC)N(Nc2ccccc2)C1=O (centres unmarked) [Compound 48, 4-ethyl-2-methylthio-4-phenyl-1-phenylamino-2-imidazolin-5-one] | ≥ 75
CSC1=NC(C)(c2ccccc2)C(=O)N1N(C)c1ccccc1 (centres unmarked) [Compound 22, 4-methyl-1-(N-methyl-N-phenylamino)-2-methylthio-4-phenyl-2-imidazolin-5-one] | ≥ 75
CSC1=NC(C)(c2ccccc2)C(=S)N1Nc1ccccc1 (centres unmarked) [Compound 1, 4-methyl-2-methylthio-4-phenyl-1-phenylamino-2-imidazoline-5-thione] | ≥ 75
CSC1=NC(C)(c2ccccc2)C(=O)N1Cc1ccccc1 (centres unmarked) [Compound 34, 1-benzyl-4-methyl-2-methylthio-4-phenyl-2-imidazolin-5-one] | ≥ 75
CC1=NC(C)(c2ccccc2)C(=O)N1Nc1ccccc1 (centres unmarked) [Compound 201, 2,4-dimethyl-4-phenyl-1-phenylamino-2-imidazolin-5-one] | ≥ 75
CSC1=NC(C)(c2ccccc2)C(=O)N1Nc1ccccc1 (centres unmarked) [Compound 9, 4-methyl-2-methylthio-4-phenyl-1-phenylamino-2-imidazolin-5-one] | ≥ 75
CSC1=NC(C)(c2ccccc2)C(=O)N1N(C(C)=O)c1ccccc1 (centres unmarked) [Compound 23, 4-methyl-1-(N-acetyl-N-phenylamino)-2-methylthio-4-phenyl-2-imidazolin-5-one] | ≥ 75
